From PubChem BioAssay (Tox21)
“And” between values parts separate entries of the source, which are not always exact repeats. Equal entries are not always repeated. Inconclusive results, whose numbers are uncertain, are shown with a selection of clear calls. A potency beside an inconclusive call is a rough fit, not a confirmed value. The source made the active and inactive calls. Calls come from the whole dose curve; as a rule, active = well fitted curve in the direction sought with a large enough effect in the repeat runs; inconclusive = weak or mixed curves; inactive = no such curve, though single readings can be large; an effect the other way counts as inactive or inconclusive.

These molecules were tested against Cytochrome P450 1A2 (Homo sapiens) (UniProt P05177) (assay: Cytochrome P450 Family 1 Subfamily A Member 2 (CYP1A2) small molecule antagonists: luciferase reporter qHTS assay (AID 1671199)). Settings: P450-Glo CYP1A2 enzyme, luciferin luminescence, 1 h; series mostly up to 115 µM.
UniProt P05177, sequence (P05177 whole entry, looked up): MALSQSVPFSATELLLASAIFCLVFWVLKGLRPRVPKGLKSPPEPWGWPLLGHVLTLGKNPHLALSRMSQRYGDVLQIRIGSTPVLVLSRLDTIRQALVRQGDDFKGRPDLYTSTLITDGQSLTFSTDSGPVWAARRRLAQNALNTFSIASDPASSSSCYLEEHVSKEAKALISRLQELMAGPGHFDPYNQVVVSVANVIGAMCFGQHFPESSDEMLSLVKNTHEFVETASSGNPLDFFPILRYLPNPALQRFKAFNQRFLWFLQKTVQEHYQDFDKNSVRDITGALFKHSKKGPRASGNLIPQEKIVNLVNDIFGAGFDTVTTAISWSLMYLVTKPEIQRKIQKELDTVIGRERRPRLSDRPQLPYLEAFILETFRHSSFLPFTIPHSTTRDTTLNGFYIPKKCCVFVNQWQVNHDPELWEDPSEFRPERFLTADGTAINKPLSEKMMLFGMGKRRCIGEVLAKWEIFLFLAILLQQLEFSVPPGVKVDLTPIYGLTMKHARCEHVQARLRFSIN
How it was run: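 Luminescence from luciferin formed by CYP1A2 from a proluciferin substrate, read 20 min after detection reagent. Compound was pre-incubated 10 min with enzyme-substrate, and reaction started with NADPH regeneration solution for 1 h at room temperature; furafylline control.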
Note: nearly all actives have a fitted effect of over 50% in size.
Potency is the fitted concentration of half-maximal effect; tags give direction and shape of the fitted curve.

| SMILES | Potency |
| --- | --- |
| CC1(C)O[C@@H]2C[C@H]3[C@@H]4C[C@H](F)C5=CC(=O)C=C[C@]5(C)[C@@]4(F)[C@@H](O)C[C@]3(C)[C@]2(C(=O)CO)O1 | inconclusive: 25.2 µM [inhibitor, partial curve] |
| O=C1c2ccccc2C(=O)C1c1ccc(Br)cc1 | inconclusive: 27.5 µM [inhibitor, partial curve] |
| ClC/C=C\CCl | active: 11.7 µM |
| O=C(O)O | inconclusive: 3.07 µM [inhibitor, partial curve] |
| Cc1cccc(O)c1C | inconclusive: 35.3 µM [inhibitor, partial curve] |
| O=Cc1ccc(F)cc1 | inactive |
| CC(O)CN(CCN(CC(C)O)CC(C)O)CC(C)O (stereo not drawn) | inconclusive: 72.2 µM [inhibitor, partial curve] |
| CCCCC(CC)CN (stereo not drawn) | inconclusive: 40.7 µM [inhibitor] |
| CCCCOC(O)CC (stereo not drawn) | inactive |
| C/C=C/c1ccc(O)c(OC)c1 | active: 20 µM and active: 22.4 µM and active: 11.5 µM |

What follows are molecules tested against Voltage-gated inwardly rectifying potassium channel KCNH2 (Homo sapiens) (UniProt Q12809) (assay: Human Ether-a-go-go-Related Gene (hERG) channel small molecule antagonists: fluorescence cell-based qHTS assay (AID 1671200)). Settings: hERG-U2OS cells, FluxOR thallium flux fluorescence; series mostly up to 76.8 µM.
UniProt Q12809, sequence (Q12809 whole entry, looked up): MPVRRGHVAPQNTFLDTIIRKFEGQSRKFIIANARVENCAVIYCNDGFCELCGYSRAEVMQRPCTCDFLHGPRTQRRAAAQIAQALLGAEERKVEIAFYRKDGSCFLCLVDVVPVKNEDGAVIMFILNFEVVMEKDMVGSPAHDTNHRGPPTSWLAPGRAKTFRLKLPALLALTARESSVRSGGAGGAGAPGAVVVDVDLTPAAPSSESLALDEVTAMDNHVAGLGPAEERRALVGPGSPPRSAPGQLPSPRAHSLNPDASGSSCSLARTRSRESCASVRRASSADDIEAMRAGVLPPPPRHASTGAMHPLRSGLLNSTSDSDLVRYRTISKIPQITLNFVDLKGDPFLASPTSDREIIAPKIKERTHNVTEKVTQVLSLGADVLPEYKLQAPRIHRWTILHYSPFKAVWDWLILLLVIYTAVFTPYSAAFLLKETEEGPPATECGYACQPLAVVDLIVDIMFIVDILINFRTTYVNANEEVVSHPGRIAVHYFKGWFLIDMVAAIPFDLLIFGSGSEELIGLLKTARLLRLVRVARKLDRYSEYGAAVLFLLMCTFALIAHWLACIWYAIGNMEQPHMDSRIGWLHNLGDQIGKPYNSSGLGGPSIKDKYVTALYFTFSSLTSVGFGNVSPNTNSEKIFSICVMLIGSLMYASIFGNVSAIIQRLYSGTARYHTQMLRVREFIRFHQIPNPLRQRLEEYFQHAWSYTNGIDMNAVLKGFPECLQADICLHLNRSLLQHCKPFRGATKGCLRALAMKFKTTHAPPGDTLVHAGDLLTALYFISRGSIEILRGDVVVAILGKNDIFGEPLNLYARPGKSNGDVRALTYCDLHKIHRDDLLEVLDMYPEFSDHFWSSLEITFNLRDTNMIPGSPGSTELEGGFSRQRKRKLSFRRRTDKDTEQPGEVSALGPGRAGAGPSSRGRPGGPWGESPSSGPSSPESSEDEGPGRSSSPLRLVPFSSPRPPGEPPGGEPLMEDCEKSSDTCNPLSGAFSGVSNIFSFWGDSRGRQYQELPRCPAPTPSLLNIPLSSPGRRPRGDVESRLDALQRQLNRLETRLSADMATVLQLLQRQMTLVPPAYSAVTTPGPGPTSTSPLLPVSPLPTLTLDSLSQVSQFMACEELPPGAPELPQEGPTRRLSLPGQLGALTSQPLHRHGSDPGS
How it was run: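 In this thallium-flux screen, overnight-cultured U2OS cells bearing the channel are dye-loaded in darkness for an hour, rested 10 min at room temperature, and then monitored kinetically at 480/540 nm for two minutes post-stimulus.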

| SMILES | Potency |
| --- | --- |
| CC(C(O)c1ccccc1)N(C)CCOC(c1ccccc1)c1ccccc1 (stereo not drawn) | active: 1.69 µM |
| CC1CCC(C(C)CS)CC1S (stereo not drawn) | inconclusive: 54.9 µM [inhibitor, partial curve] |
| Nc1ccc(N=Nc2ccccc2)c(N)n1 | inconclusive: 55.3 µM [inhibitor, partial curve] and inconclusive: 54.9 µM [inhibitor, partial curve, poor fit] |

Each molecule was assayed against Cytochrome P450 3A4 (Homo sapiens) (UniProt P08684) (assay: Cytochrome P450 Family 3 Subfamily A Member 4 (CYP3A4) small molecule antagonists: luciferase reporter qHTS assay (AID 1671201)). Settings: P450-Glo CYP3A4 enzyme, luciferin luminescence, 1 h; series mostly up to 115 µM.
UniProt P08684, sequence (P08684 whole entry, looked up): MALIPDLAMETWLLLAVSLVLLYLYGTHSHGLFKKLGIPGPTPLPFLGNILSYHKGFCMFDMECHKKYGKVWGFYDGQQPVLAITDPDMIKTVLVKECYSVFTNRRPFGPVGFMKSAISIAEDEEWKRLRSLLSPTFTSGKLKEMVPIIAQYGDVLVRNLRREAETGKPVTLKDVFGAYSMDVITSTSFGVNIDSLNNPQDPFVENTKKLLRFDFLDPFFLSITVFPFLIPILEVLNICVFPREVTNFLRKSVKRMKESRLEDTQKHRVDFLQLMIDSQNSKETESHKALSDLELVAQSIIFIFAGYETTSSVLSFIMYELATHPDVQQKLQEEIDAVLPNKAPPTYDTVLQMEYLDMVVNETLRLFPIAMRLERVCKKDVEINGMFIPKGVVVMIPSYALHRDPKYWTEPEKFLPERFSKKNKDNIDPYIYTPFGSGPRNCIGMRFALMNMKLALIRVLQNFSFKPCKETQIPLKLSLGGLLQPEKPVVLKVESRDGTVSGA
How it was run: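 CYP3A4 activity was followed with a P450-Glo proluciferin substrate. Test compounds in DMSO were preincubated 10 min; NADPH regeneration then ran 1 h, and light output was read 20 min after detection reagent.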

| SMILES | Potency |
| --- | --- |
| CC(C(O)c1ccccc1)N(C)CCOC(c1ccccc1)c1ccccc1 (stereo not drawn) | inconclusive: 0.55 µM [inhibitor, full curve] |
| C=CCN1CCc2nc(N)sc2CC1 | inactive |
| c1cnc2c(n1)CCCC2 | inactive |
| Cc1ccnc2c1NC(=O)c1cccnc1N2C1CC1 | inactive |
| CCCCOC(O)CC (stereo not drawn) | inactive |
